PubChem BioAssay AID588591 (National Center for Advancing Translational Sciences (NCATS), 2011)
The campaign covered roughly 390,000 compounds. About 4,700 (1.2%) were called active. The inconclusive results got no clear call from the source; some entries with a clear call stand among them for comparison. The call rests on the fitted dose curve; in most records, active means well fitted inhibition curve with a large enough effect; inconclusive means small, poorly fitted or top-dose-only effect, or another doubt; inactive means no such curve, though single readings can be large or run the other way. A potency beside an inconclusive call is a rough fit, not a confirmed value.

molecular target: DNA polymerase eta (Homo sapiens) (UniProt Q9Y253); test: qHTS for Inhibitors of Polymerase Eta; settings: recombinant Pol eta, fluorescent DNA replication assay; series mostly up to 114 µM
UniProt Q9Y253, sequence (Q9Y253 whole entry, looked up): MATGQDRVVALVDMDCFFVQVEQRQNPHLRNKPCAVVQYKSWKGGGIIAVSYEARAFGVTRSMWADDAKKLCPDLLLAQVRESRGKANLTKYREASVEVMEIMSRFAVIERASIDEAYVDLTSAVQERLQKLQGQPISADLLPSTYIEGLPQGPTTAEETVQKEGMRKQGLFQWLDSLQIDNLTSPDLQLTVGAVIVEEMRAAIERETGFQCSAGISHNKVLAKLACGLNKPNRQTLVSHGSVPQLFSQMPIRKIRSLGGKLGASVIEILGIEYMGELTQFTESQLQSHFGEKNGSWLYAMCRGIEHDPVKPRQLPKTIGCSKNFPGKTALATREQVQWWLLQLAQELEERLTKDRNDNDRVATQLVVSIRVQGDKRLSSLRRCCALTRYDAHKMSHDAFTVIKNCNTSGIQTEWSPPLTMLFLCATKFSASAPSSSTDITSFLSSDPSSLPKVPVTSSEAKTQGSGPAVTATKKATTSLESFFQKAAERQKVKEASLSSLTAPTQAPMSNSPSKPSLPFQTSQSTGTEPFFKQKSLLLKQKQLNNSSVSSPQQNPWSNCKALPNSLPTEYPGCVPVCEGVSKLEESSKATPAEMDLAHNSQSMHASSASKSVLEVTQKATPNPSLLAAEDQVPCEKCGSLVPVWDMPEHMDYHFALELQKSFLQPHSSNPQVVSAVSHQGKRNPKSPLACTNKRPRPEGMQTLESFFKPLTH
Method in brief: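 Pol eta (10 nM) was preincubated with compounds for 15 min at room temperature, after which fluorescent replication substrate (50 nM final) was added to start the reaction. Fluorescence was read kinetically at 0 and 10 min.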
Potency means the concentration at half of the fitted maximal effect; tags describe the fitted curve by direction and shape.

Row | Structure (SMILES) | Potency
1 | O=C(Nc1ccc(Cl)c(Cl)c1)N(Cc1c[nH]c2ccccc12)C1CCCCC1 | inconclusive: 79.4 µM [inhibitor, partial curve, poor fit]
2 | CN(C)CCN(C(=O)c1ccc(S(=O)(=O)N(C)C)cc1)c1nc2cc3c(cc2s1)OCCO3 | inconclusive: 39.8 µM [inhibitor, single point]
3 | O=C(O)COc1ccc(/C=C/C(=O)c2ccc(C3CCCCC3)cc2)cc1 | active: 39.8 µM
4 | CCOC(=O)c1c2ccc(OCC(=O)N/N=C/c3ccc(C)cc3)cc2n2ccccc12 | inconclusive: 7.94 µM [inhibitor, partial curve]
5 | COc1ccc(-c2nc(=S)c3c([nH]2)Oc2ccc(C)cc2C3)cc1O | inconclusive: 14.1 µM [inhibitor, single point]
6 | Cc1ccc(S(=O)(=O)N(C)C)cc1NC(=S)NC12CC3CC(CC(C3)C1)C2 | inconclusive: 89.1 µM [inhibitor, partial curve, poor fit]
7 | COc1ccccc1CNC(=O)c1cnccn1 | active: 70.8 µM
8 | CC(=O)Nc1ccccc1NS(=O)(=O)c1cccc([N+](=O)[O-])c1 | inconclusive: 100 µM [inhibitor, partial curve, poor fit]
9 | Cc1cc(OCC(=O)Nc2sc3c(c2C#N)CCC(C)C3)ccc1Cl (configuration not stated) | inconclusive: 89.1 µM [inhibitor, partial curve, poor fit]
10 | O=C(Nc1cccc(S(=O)(=O)N2CCCCCC2)c1)C1CC(=O)N(c2ccc3c(c2)OCCO3)C1 (configuration not stated) | inconclusive: 8.91 µM [inhibitor, partial curve, poor fit]
11 | O=C1CN(C(=O)COC(=O)c2ccc([N+](=O)[O-])s2)c2ccccc2N1 | active: 22.4 µM
12 | CC(=O)Nc1ccc(NC(=O)CSc2nnc(NC(=O)c3ccc(Br)o3)s2)cc1 | active: 14.1 µM
13 | Cc1nc2scc(-c3ccc(C(C)(C)C)cc3)c2c(=O)n1N | active: 89.1 µM
14 | Cc1cccc(C)c1NC(=O)CN(C)C(=O)c1cccc(-n2cccc2)c1 | active: 10 µM
15 | COc1ccc(C2CC(c3ccc(OC)c(OC)c3)=NN2S(C)(=O)=O)cc1 (configuration not stated) | inconclusive: 89.1 µM [inhibitor, partial curve, poor fit]
16 | O=C1COc2c1ccc(O)c2O | active: 22.4 µM
17 | CCOc1ccc(CCNC(=O)C2CCN(C(=O)c3cc4sccc4n3CC)CC2)cc1OCC | inactive
18 | NS(=O)(=O)c1ccc(CCNC(=O)CCS(=O)(=O)c2ccc(Br)cc2)cc1 | active: 20 µM
19 | NC(=S)N/N=C\c1c2ccccc2cc2ccccc12 | inconclusive: 31.6 µM [inhibitor, partial curve, poor fit]
20 | CSc1ncc(CN2CCCC(C(=O)Nc3ccc(-c4ccco4)cc3)C2)cn1 (configuration not stated) | inconclusive: 25.1 µM [inhibitor, partial curve]
21 | Cc1ccc(Cc2cncc(O)c2)cc1S(=O)(=O)O | active: 25.1 µM
22 | COc1ccc(CC(=O)Nc2ccc(-c3noc(-c4ccccc4OC)n3)cc2)cc1 | inconclusive: 14.1 µM [inhibitor, full curve, poor fit]
23 | CC(C)(C)OC(=O)[C@H](Cc1ccccc1)NC(=O)c1[nH]cnc1C(=O)N[C@@H](Cc1ccccc1)C(=O)OCc1ccccc1 | inconclusive: 89.1 µM [inhibitor, partial curve, poor fit]

Row | Structure (SMILES) | Potency
24 | COc1ccc(OC)c(NC(=O)c2ccc3c(c2)C(=O)N(c2ccc(OC(C)=O)cc2)C3=O)c1 | inactive
25 | CC1CC(C)CN(c2cc(=O)n(Cc3ccc(F)cc3)c(=O)[nH]2)C1 (configuration not stated) | inactive
26 | O=C(C[n+]1ccc(C(=O)N/N=C/c2ccc(Br)cc2)cc1)c1ccccc1 | inconclusive: 31.6 µM [inhibitor, partial curve, poor fit]
27 | Cc1ccc(NC(=O)c2ccc(OC(=O)CCN3C(=O)c4ccccc4C3=O)cc2)cc1 | inconclusive: 15.8 µM [inhibitor, partial curve, poor fit]
28 | O=C1c2ccccc2-c2c1c1ccccc1c(=O)n2CCO | inconclusive: 12.6 µM [inhibitor, partial curve, poor fit]
29 | Cc1ccc(S(=O)(=O)N(CC(=O)NCCc2ccc(Cl)cc2)c2ccccc2C)cc1 | inactive
30 | CCOC(=O)N1CCc2c(sc3c2c(=O)n(Cc2ccccc2)c(=O)n3Cc2ccccc2Cl)C1 | inactive
31 | CC1(C)CC(=O)C(N=Nc2cc(Cl)c(Cl)c(Cl)c2)=C(O)C1 | inactive
32 | COc1ccc(CCNC(=O)Cc2c(C)c3c(cc(C)c4c(C)c(C)oc43)oc2=O)cc1 | inactive
33 | CCN(CC)c1ccc(/C=C2\C(=O)c3ccc(C(=O)O)cc3C2=O)cc1 | active: 7.94 µM
34 | C=C(C)C(=O)Nc1cccc(C2=NOC3(C2)C[C@@H](C(N)=O)N(C(=O)C2(C)CC2)C3)c1 (some centres not stated) | active: 3.16 µM
35 | O=C(O)c1ccc(NS(=O)(=O)c2ccc3c(c2)C(=O)c2ccccc2C3=O)cc1 | inconclusive: 22.4 µM [inhibitor, full curve]
36 | COc1cc(/C=N\NC(=O)c2ccc(-c3ccccc3)cc2)cc(Br)c1O | inconclusive: 28.2 µM [inhibitor, single point]
37 | COC(=O)c1cc2nc(-c3ccccc3)cc(C)n2n1 | inconclusive: 22.4 µM [inhibitor, single point]
38 | Cc1nn(-c2ccccc2)c2sc(-c3n[nH]c(=S)o3)cc12 | inconclusive: 89.1 µM [inhibitor, single point]
39 | Cc1cccc(N2CCN(C(=O)Cc3ccc(-n4c(=O)[nH]c5ccsc5c4=O)cc3)CC2)c1C | inconclusive: 3.98 µM [inhibitor, partial curve, poor fit]
40 | C#CCNC(=O)C1=C[C@@H](c2ccc(C#C)cc2)C[C@@H](OCCCCO)O1 | active: 25.1 µM
41 | CC1CCCCC1NC(=O)COC(=O)c1ccc([N+](=O)[O-])o1 (configuration not stated) | active: 89.1 µM
42 | COc1ccc(C(=O)/C=C/Nc2ccc(S(N)(=O)=O)cc2)cc1OC | inactive
43 | Cc1ccc(NC(=O)COc2coc(CN3CCc4ccccc43)cc2=O)c(C)c1 | inconclusive: 20 µM [inhibitor, full curve, poor fit]
44 | N#Cc1ccsc1NC(=O)C1CCN(C(=O)c2ccc(F)cc2)CC1 | inconclusive: 20 µM [inhibitor, full curve, poor fit]
45 | Cc1ccc(/C=N/NC(=O)c2cc3c(ccc4ccccc43)o2)cc1[N+](=O)[O-] | inconclusive: 3.16 µM [inhibitor, full curve, poor fit]
46 | Cc1ccc(C(=O)N2CCCC(N(C)Cc3ccccc3)C2)s1 (configuration not stated) | inconclusive: 89.1 µM [inhibitor, partial curve, poor fit]

Row | Structure (SMILES) | Potency
47 | O=C(O)c1cccnc1SCC(=O)N1CCCc2ccccc21 | active: 20 µM
48 | C/C(=N\Nc1ccc(Cl)c(C(=O)O)c1)c1ccc(Br)s1 | active: 20 µM
49 | Cn1c(NCCO)nc2c1c(=O)n(Cc1ccc(F)cc1)c(=O)n2C | inactive
50 | CCOC(=O)N1CCC(N2C(=O)c3ccc(C(=O)Nc4ccc(OC)cc4)cc3C2=O)CC1 | inconclusive: 2.82 µM [inhibitor, full curve, poor fit]
51 | O=c1[nH]c(/C=C\c2ccc(O)c(O)c2)nc(O)c1[N+](=O)[O-] | inconclusive: 20 µM [inhibitor, full curve, poor fit]
52 | CC(=O)Nc1ccc2nc(NC(=O)c3cccs3)sc2c1 | inconclusive: 50.1 µM [inhibitor, partial curve, poor fit]
53 | O=C(NN1C(=O)C2CC=C(Cl)CC2C1=O)c1ccncc1 (configuration not stated) | active: 10 µM
54 | CCN(CC)Cc1c(O)c(Cl)cc2c(C)cc(=O)oc12 | active: 20 µM
55 | COC(=O)CCCC1=CC2=CC(=O)C(C)(OC(=O)c3cccs3)C(=O)C2=CN1C1CCCC1 (configuration not stated) | inactive
56 | O=C(O)CCN1CC2([N+](=O)[O-])C=CC(=O)C([N+](=O)[O-])(C1)C2CC(=O)c1ccccc1 (configuration not stated) | active: 17.8 µM
57 | CC1(OC(=O)c2cccs2)C(=O)C=C2C=C(C3CC3)OC=C2C1=O (configuration not stated) | inconclusive: 31.6 µM [inhibitor, full curve]
58 | CCOc1ccccc1NC(=O)N1CCC(NC(=O)c2cccc(C)c2)CC1 | inconclusive: 89.1 µM [inhibitor, partial curve]
59 | O=C(O)CCCCCN1C(=O)/C(=C\c2ccc(-c3ccc(Cl)cc3)o2)SC1=S | inconclusive: 15.8 µM [inhibitor, partial curve, poor fit]
60 | COc1cccc(NC(=O)CSc2nc(=O)n(Cc3ccncc3)c3c2CCC3)c1 | inconclusive: 89.1 µM [inhibitor, partial curve, poor fit]
61 | O=C(COc1ccccc1[N+](=O)[O-])N/N=C/C=C/c1ccco1 | inconclusive: 39.8 µM [inhibitor, single point]
62 | Cc1ccc(/C(=N/Nc2nc3ccccc3s2)C2=C(O)c3ccccc3C2=O)cc1 | inconclusive: 79.4 µM [inhibitor, partial curve, poor fit]
63 | S=c1[nH]nc(-c2ccco2)n1-c1ccccc1Cl | inactive
64 | Cc1cccc(Cc2cnc(N3C(=N)SC(C)C3=O)s2)c1 (configuration not stated) | inactive
65 | COC(=O)c1cc(S(=O)(=O)N2CCN(c3ccccc3OC)CC2)cn1C | inconclusive: 35.5 µM [inhibitor, single point]
66 | O=C(CSc1nnc(CNC(=O)c2ccco2)o1)Nc1cccc(F)c1 | inactive
67 | C=CCOc1c(OC)cc(/C=N/Nc2cccc(C(=O)O)c2)c(Br)c1Br | inconclusive: 15.8 µM [inhibitor, partial curve, poor fit]
